Assay results as given in PMC4357395 (Journal of Medicinal Chemistry, 2015).

System: C3A cells
Assay: Inhibition of CoA biosynthesis, [3H]pantothenate metabolic labeling

IC50 (read-out: apparent IC50, inhibition of CoA biosynthesis, C3A cells labeled with [3H]pantothenate for 24 h): 900 ± 110 nM
SMILES: CSc1cccc(NC(=O)CCc2c(C)nc3c4cccnc4nn3c2C)c1 [Compound 7]
effect on cell viability (C3A cells, at the concentrations used in the labeling experiment): no effect on cell viability
[3H]pantothenate incorporation into CoA (cultured C3A cells): dose-dependent decrease
